Results taken from PubChem BioAssay AID504845 (National Center for Advancing Translational Sciences (NCATS), 2011).
In all, about 390,000 compounds went through this assay and about 150 (0.038%) were called active. The inconclusive results got no clear call from the source; some entries with a clear call stand among them for comparison. The call rests on the fitted dose curve; in most records, active means well fitted inhibition curve with a large enough effect; inconclusive means small, poorly fitted or top-dose-only effect; inactive means no such curve, though single readings can be large or run the other way. A potency beside an inconclusive call is a rough fit, not a confirmed value.

Biological target: Regulator of G-protein signaling 4 (Homo sapiens) (UniProt P49798)
Chain of UniProt P49798 (P49798 whole entry, looked up): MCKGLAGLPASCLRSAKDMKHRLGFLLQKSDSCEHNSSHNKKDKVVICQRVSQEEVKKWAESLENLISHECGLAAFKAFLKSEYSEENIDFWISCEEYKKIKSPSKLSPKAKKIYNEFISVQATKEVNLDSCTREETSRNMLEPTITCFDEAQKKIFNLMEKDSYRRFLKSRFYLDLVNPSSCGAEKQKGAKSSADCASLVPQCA
Experiment: Inhibitors of Regulator of G Protein Signaling (RGS) 4: qHTS; further: nearly all actives have a fitted effect of over 75% in size
Settings: Transcreener GDP fluorescence polarization, RGS4-accelerated GTP hydrolysis; series mostly up to 114 µM; activity change, negative = inhibition: at the top concentration
Outline: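 MLSMR compounds (23 nl, pin-transferred) preincubated 10 min at room temperature with a 500nM (2x) first reagent, then RGS4 at 900nM (2x) plus Transcreener GDP mix added; fluorescence polarization (620/688 nm) read before and after 90 min at 30 °C.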
On the % scale 0 is the no-effect control and ±100 the full control effect; potency means the concentration at half of the fitted maximal effect; tags describe the fitted curve by direction and shape.

Structure (SMILES)	Potency	activity change, negative = inhibition
COc1cc(CNn2c(C)n[nH]c2=S)cc(Br)c1OCc1ccc(F)cc1	inconclusive: 79.4 µM [inhibitor, partial curve, poor fit]	–
CC(Oc1ccccc1)C(=O)NC1CCN(Cc2ccccc2)CC1 (stereo not drawn)	–	inactive: -34.6%
N#Cc1ccc(COC(=O)c2cccnc2Cl)cc1	–	inactive: -21.1%
COc1ccc(Cl)cc1NC(=O)c1c(NCc2ccc(C)o2)sc2c1CCCCC2	inconclusive: 79.4 µM [inhibitor, partial curve, poor fit]	–
CCCCNc1nc(Oc2ccc(OCC)nn2)nc(N2CCOCC2)n1	–	inactive: -3.57%
COc1ccc(C(O)P(=O)(OC2CCCCC2)c2ccc(N(C)C)cc2)cc1OC (stereo not drawn)	–	inactive: 24.8%
COc1ccc(C)cc1NC(=O)CN1CCN(c2ccccc2F)CC1	inconclusive: 79.4 µM [inhibitor, single point]	–
Cc1ccc(-n2c(SCC(=O)Nc3ccc4c(c3)OCO4)nnc2-c2ccoc2C)cc1	inconclusive: 70.8 µM [inhibitor, partial curve, poor fit]	–
O=C1CCCCC1Sc1nnc(Cc2cccs2)n1CCc1ccccc1 (stereo not drawn)	inconclusive: 50.1 µM [inhibitor, partial curve, poor fit]	–
COc1ccc(CN(C(=O)/C=C/c2ccco2)C2CCS(=O)(=O)C2)cc1OC (stereo not drawn)	–	inactive: -31.6% [at 56.9 µM]
COc1ccc(S(=O)(=O)n2oc(=O)cc2-c2ccccc2)cc1	inconclusive: 50.1 µM [inhibitor, partial curve, poor fit]	–
CCc1ccc(NCc2cc3cc4c(cc3n(CC(=O)Nc3ccc(C)cc3)c2=O)OCO4)cc1	inconclusive: 100 µM [inhibitor, single point]	–
COc1ccc(-c2cc(C(F)(F)F)nc(S(=O)(=O)CCCC(=O)Nc3cccc(O)c3)n2)cc1OC	inconclusive: 89.1 µM [inhibitor, partial curve, poor fit]	–
CN(C)Cc1c(C(=O)Nc2ccccc2)[nH]c2ccccc12	inconclusive: 89.1 µM [inhibitor, single point]	–
N#CC1=C(N)SC(N)=C(C#N)C1Cc1ccccc1	inconclusive: 70.8 µM [inhibitor, partial curve, poor fit]	–
CSc1ccccc1NC(=O)c1cc(-c2cccnc2)nc2ccc(Br)cc12	inconclusive: 28.2 µM [inhibitor, full curve, poor fit]	–
N#Cc1cnc(Sc2ccccc2)nc1	inconclusive: 79.4 µM [inhibitor, partial curve, poor fit]	–
O=c1[nH]c2ccccc2nc1/C=C/c1ccc(Cl)cc1	inconclusive: 17.8 µM [inhibitor, full curve, poor fit]	–
CC(C)(C)c1cc(C2=CSC3=NCCN23)cc(C(C)(C)C)c1O	inconclusive: 20 µM [inhibitor, full curve, poor fit]	–
COc1cccc2cc(C(=O)CS(=O)(=O)c3ccc(Cl)cc3)c(=O)oc12	inconclusive: 50.1 µM [inhibitor, partial curve, poor fit]	–
O=C(NCCCn1ccnc1)C(Cc1ccc([N+](=O)[O-])cc1)N1C(=O)c2ccccc2C1=O (stereo not drawn)	inconclusive: 89.1 µM [inhibitor, single point]	–
CC1=NN(c2ccc(C)cc2C)C(=O)C1C(c1cccc(O)c1)C1C(=O)N(c2ccc(C)cc2C)N=C1C (stereo not drawn)	inconclusive: 22.4 µM [inhibitor, full curve, poor fit]	–

Structure (SMILES)	Potency	activity change, negative = inhibition
Cn1c2c(c(=O)n(C)c1=O)C(C(F)(F)F)(C(F)(F)F)N=C(c1ccccc1Cl)N2	–	inactive: 32.6%
Cc1ccc(CN(C)C(=O)c2cc(COc3cccc(C(F)(F)F)c3)on2)o1	inconclusive: 20 µM [inhibitor, full curve, poor fit]	–
Cc1ccccc1C(=O)Nc1nnc(S(=O)(=O)N2c3ccccc3CC2C)s1 (stereo not drawn)	–	inactive: -32.2%
COc1ccc(NC(=O)CN2CCC(C)CC2)cc1	–	inactive: -3.73%
CC(C)Cn1c(N)c(C(=O)COC(=O)c2cc(-c3ccco3)nc3ccccc23)c(=O)n(C)c1=O	inconclusive: 44.7 µM [inhibitor, partial curve, poor fit]	–
OC(COc1ccc(Cl)c2ccccc12)CN1CCN(c2ccccn2)CC1 (stereo not drawn)	–	inactive: 11.9%
NNc1nc2cccnc2n(CCNc2ncc(C(F)(F)F)cc2Cl)c1=O	inconclusive: 79.4 µM [inhibitor, partial curve, poor fit]	–
CC(=O)N1CCN(c2ccc(NC(=O)COc3ccc(Cl)cc3Cl)cc2)CC1	inconclusive: 44.7 µM [inhibitor, partial curve, poor fit]	–
C=CC[C@H]1CC(C)=C[C@H](CC=C)N1C(=O)c1cc(COc2ccccc2SC)on1	–	inactive: 2%
Cc1cnc2cc([N+](=O)[O-])ccc2n1	inconclusive: 79.4 µM [inhibitor, partial curve, poor fit]	–
CN(CC(=O)Nc1ccc(Cl)cc1)C(=O)c1cccc(S(=O)(=O)N2CCN(Cc3ccccc3)CC2)c1	–	inactive: -14%
C=CCOC(=O)C1=C(C)NC(SCC(=O)Nc2nccs2)=C(C#N)C1c1ccc(Cl)cc1 (stereo not drawn)	–	inactive: -4.83%
CCO[C@H]1OC(C(=O)N2CCN(Cc3ccccc3)CC2)=C[C@@H](C2CCCCC2)[C@@H]1CCCO	–	inactive: 9.08%
CC(C)(C)NCCOc1ccc(Br)cc1	–	inactive: -27.7%
O=C(Cn1cc(SCc2cccc(Cl)c2)c2ccccc21)N1CCCCCC1	inconclusive: 89.1 µM [inhibitor, single point]	–
C/C=C1\COC(C(=O)NCc2cccc(OC)c2OC)(C(F)(F)F)C=C1C=C(C)C (stereo not drawn)	–	inactive: 21.6%
COc1cccc(-c2ccc3nnc(SCC(=O)Nc4ccc(NC(C)=O)cc4)n3n2)c1	inconclusive: 28.2 µM [inhibitor, full curve, poor fit]	–
Cc1ccc(S(=O)(=O)N/N=C2/CCCCC2C2CCCCC2)cc1[N+](=O)[O-] (stereo not drawn)	inconclusive: 35.5 µM [inhibitor, full curve, poor fit]	–
NC(=O)c1cc2ccc(O)cc2oc1=NCc1ccccc1	–	inactive: 12%
O=C(CNCc1ccc(Cl)cc1)Nc1ccc(C(=O)N2CCCCC2)cc1	–	inactive: -11.2%
C[C@H]1CCC/C=C/[C@@H]2C[C@H](O)C[C@H]2[C@H](O)[C@H](S(=O)c2ccc(O)cc2)CC(=O)O1 (stereo partly drawn)	inconclusive: 89.1 µM [inhibitor, partial curve, poor fit]	–
